In the supplement of paper PMC12632987:
Over roughly 2,300 sequences, “median log2 fold change of GCK-ALFA target abundance (FLAG IP / Myc IP barcode read proportion)” has its median near 0.095; the lowest 2% begin near -0.47. The list shows a part of the results.

B1: LC3A_28_941 (protein)
chain: MTTDEDLAAVLAQAKEAAAKGEATTFTLTVTPEDTEEDVQKIIDTVEEIAELLKDIPGTGIIIDIEAGVPEEKINLISKETEKIEKKYPNVTVILALDED
B2: LC3A_28_992 (protein)
chain: SELDKQLAEALAAAKAAAAAGEPAVITIKVSGKATEEDIDKVIEAMREIAEILSGIEGSAIIIDVDGKLPQELRDKLFDAAEEIEEEYPDVTVIIALDEE
B3: LC3A_3_1795 (protein)
chain: ADAALAALLAELRAAGKSDETLAAARRALTALIERGYDAAFATLVAELRALKDIPDEILLALLEEVLELVENEDLSEAELTARIRELARLARLESEIEEL
B4: LC3A_108_165 (protein)
chain: KIVYISAEPDIFEEAAELAYEIARRTGAKVKLLADTEELAEEFRAANAEILARMKAEGLEIEVLAKTFEEAEKEAKKKYKVDVYEVVTEKGVIDVIEVTE
B5: LC3A_28_1026 (protein)
chain: SKAEERVAKAREEALAQKAAGEPVFITIKVTADTTLEDAKTIVEGIEEIVEELKDEKGINIIIDVERGVSQEVIDTLADGAERIEEKYPNVNVIIALEEE
B6: LC3A_28_933 (protein)
chain: MSVEEIIAAIEATAAEAIAAGEDALIEVEIGSDTTVEEAERIMDKLEEEAARLSKAGLKVDVVIDLDNVSQEVLDTIMKKAEEIEKKYPNVNVIIALDEE
B7: LC3A_45_1966 (protein)
chain: MYLATVDLLVPNEEYEKAKEVLEKAAKEIEEEDPDTVKVTVEEDEATKEEDEKEGYRYIIVKVEAKTKQEALDIADKIVDRLEEAGIKGMAAIISVEEIE
B8: LC3A_3_1717 (protein)
chain: SEEIKKEIIEELKKKGASEETIEAAKELLDALEKKGYEEAMKTLLEEIKKAEGISSEILLNTLEELLHIVKNENLSEEELIKKIKEEFKIAKNENEIIEL
B9: LC3A_28_904 (protein)
chain: SKAIESAEKALEEVKKAVEAGDQSPLVLEVDAPSDEEDVEKFLELLEEIAREASKLKGVSIIIDIDEEVSEENKDKIIDKAEELEEKYPNVTIIIALPES
B10: LC3A_45_1964 (protein)
chain: MYRATIDLLVPRADVERVRAAVRETAEALRAEYGDRVEFDLERLDASAAATADEEEVYLELDIYADTKELALDAADRILAAIEAAVGRPVAAIISVEEVP
B11: LC3A_28_1235 (protein)
chain: NAVEKQIEAAKAEVEAAVAAGEEALVELTVTKETTEEDVEKIIKAMEEIAALAATLPALTIIIDVERGVKQEHIDKLADAADAIEAKYPNVTVIIALEEE
B12: LC3A_3_1634 (protein)
chain: LDERVAATLERLRAAGASEETLEAFRRTAELLKARGYDRALETLIEETERLLDLPDELLLDFYRDVLAYLETEDADEETVIKEIRRLARTARAEGEIIEL
B13: LC3A_3_1741 (protein)
chain: MEERLEEARERLEELGLSEEVVEAALRVVEALLERGFEEAVETLLELLEELKDLPDDILLAMLEDILRVVETEDLSEEEVIALIREEASVARSEAEIIEL
B14: LC3A_3_1826 (protein)
chain: MEEEIAATIARLKAAGHSQETIDAFKEAADALLEKGYYNTLKTLIELMDENVDMPSELLLELFEEVLKLVKETDLSEEELSKKVKELADLYKNEYEIEEL
B15: LC3A_free_8_2551 (protein)
chain: NSQEFAEKVSEIIDEAEEKVKKILTENGVDREKRLLLELLFGEIIIEVISLRDKSKEEIAKAAKEGLEEVKEEAESLDEETKAKVNAVIDEAEAKIEALL
B16: LC3A_28_755 (protein)
chain: ADIEGTIKEAIERAKKAKEEGKEEVIEITVPAGATQADIDKVIEGMEEIAEINKDMKRTTILVNVEAGVAQENLDKLIDAGEEIEEKYPNVTVIFALDEE
B17: LC3A_free_46_2303 (protein)
chain: YRAEIDIDLGGLDEAGMKALVDELVARFKAIAAEHGAKIDIEVEITTDEEGETFARIRITITAPDKETLQAAVTAIIDEVDELTKETGAAALISVEFHEE
B18: LC3A_free_8_2460 (protein)
chain: SSQAIVDAAVAGLDALEDEVVAKLKALGKSRLDILDMELVIGSTIADVISKVDDSPEAILEATKEGLERILEEAKKIGEEVAKLAEKKAEEILAKIKELM
B19: LC3A_28_1331 (protein)
chain: SHIEEELERAEKEAREALERGEDVLLEVKITGSTTLEEAEYMMEKLEEIVEEVAPHRKVSIVIDVDSSVSQEVIDLIAEKAEEIEEKYPNATVIIALDED

Target: MAP1LC3A, Q9H492
Assay: median log2 fold change of GCK-ALFA target abundance (FLAG IP / Myc IP barcode read proportion) (log2 ratio); each designed protein is fused to an ALFA-tag nanobody in HEK293 cells to bring the named protein to FLAG-tagged glucokinase (GCK); Myc marks an untargeted standard; higher = target protein stabilised (more abundant)
Conditions: target protein: 3xFLAG-MCP-GCK-ALFA reporter; HEK293 landing pad (RPLP)
Outline: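 HEK293 landing-pad cells received a recombined binder library fused to the ALFA nanobody and were induced with 2 μg mL^−1 doxycycline, then transfected with a plasmid encoding a FLAG-tagged target and a Myc-tagged standard. Lysates were collected after 48 h for anti-FLAG and anti-Myc immunoprecipitation, and the circular RNA barcodes were reverse transcribed, amplified and sequenced. Target abundance for each binder is the median log2 ratio of FLAG to Myc barcode read proportions. Barcodes had to reach a proportion of at least 10^−7 in both replicates, each binder needed at least 3 barcodes per replicate, a pseudocount of 10^−6 was applied, and the two replicates were pooled.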

Row | Binder | median log2 fold change
1 | B1 | -0.0159
2 | B2 | 0.078
3 | B3 | 0.163
4 | B4 | 0.00307
5 | B5 | 0.0497
6 | B6 | -0.291
7 | B7 | -0.0963
8 | B8 | 0.399
9 | B9 | -0.229
10 | B10 | -0.106
11 | B11 | 0.0727
12 | B12 | 0.272
13 | B13 | 0.0728
14 | B14 | 0.186
15 | B15 | -0.172
16 | B16 | -0.196
17 | B17 | 0.0451
18 | B18 | 0.228
19 | B19 | 0.0179
